# Results published in publication PMC4336329 (PLoS ONE, 2015).
# Out of some 310,000 compounds screened, about 14,000 (4.5%) showed an effect of 50% or more. Effects have a minus sign here. Some of the results follow.
# Molecular target: human ether-à-go-go-related gene (hERG) potassium channel (human, UniProt Q12809)
# Assay: primary screen, population patch clamp on CHO cells stably expressing hERG
# 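Also: peak tail current of the secondary pulse compared with the same well before compound.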
# Chain of human ether-à-go-go-related gene (hERG) potassium channel (Q12809 whole entry, looked up): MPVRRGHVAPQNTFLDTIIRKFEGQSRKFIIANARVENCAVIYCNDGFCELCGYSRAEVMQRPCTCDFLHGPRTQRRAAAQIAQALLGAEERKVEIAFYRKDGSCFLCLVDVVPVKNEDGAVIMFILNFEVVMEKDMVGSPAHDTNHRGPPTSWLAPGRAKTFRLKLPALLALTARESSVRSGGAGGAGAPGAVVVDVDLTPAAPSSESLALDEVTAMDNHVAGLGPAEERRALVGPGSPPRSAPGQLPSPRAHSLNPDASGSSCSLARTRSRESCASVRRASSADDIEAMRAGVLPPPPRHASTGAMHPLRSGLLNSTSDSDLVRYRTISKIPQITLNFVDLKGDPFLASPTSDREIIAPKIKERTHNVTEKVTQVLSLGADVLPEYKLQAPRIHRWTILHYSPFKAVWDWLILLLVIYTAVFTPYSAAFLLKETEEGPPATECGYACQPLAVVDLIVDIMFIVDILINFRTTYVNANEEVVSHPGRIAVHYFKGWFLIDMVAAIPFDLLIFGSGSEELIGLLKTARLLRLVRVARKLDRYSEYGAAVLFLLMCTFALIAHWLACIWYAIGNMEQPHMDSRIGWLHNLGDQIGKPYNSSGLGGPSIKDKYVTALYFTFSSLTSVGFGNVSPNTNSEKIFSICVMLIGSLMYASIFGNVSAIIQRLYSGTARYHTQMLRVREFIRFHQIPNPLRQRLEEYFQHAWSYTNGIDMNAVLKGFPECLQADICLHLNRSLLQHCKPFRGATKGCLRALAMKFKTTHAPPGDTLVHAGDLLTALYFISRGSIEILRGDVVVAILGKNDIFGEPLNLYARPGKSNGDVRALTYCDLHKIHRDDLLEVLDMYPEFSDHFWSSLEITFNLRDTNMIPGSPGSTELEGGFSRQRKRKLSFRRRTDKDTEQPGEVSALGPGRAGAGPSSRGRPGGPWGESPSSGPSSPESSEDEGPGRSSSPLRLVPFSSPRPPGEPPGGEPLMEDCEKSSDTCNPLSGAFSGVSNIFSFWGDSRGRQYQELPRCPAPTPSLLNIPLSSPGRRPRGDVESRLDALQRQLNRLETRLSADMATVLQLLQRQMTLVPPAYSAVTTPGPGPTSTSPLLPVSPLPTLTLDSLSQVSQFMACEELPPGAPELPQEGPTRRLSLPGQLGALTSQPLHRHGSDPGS
row,Structure (SMILES),"hERG current change (%, negative = inhibition) at 10uM [%]"
1,O=C(O)CCC(=O)N(Cc1ccco1)C1CC(=O)N(c2ccccc2)C1=O (centres unmarked),16.2
2,CCCCn1c(O)c(C(CC)=NC(C)c2ccccc2)c(=O)[nH]c1=O (centres unmarked),-29.3
3,COc1ccc(/C(O)=C2\C(=O)C(=O)N(CCN(C)C)C2c2cccc(OC)c2OC)cc1 (centres unmarked),5.18
4,COc1cc(/C=N/NC(=O)Cc2ccc(Br)cc2)cc(OC)c1O,25.8
5,c1ccc(CCC2CCCCN2Cc2cn[nH]c2-c2cc3ccccc3o2)nc1 (centres unmarked),-74.9
6,CCOC(=O)c1cn[nH]c1NC(=S)Nc1ccc(OC)cc1,14.5
7,COc1ccccc1N1CCN(C(=O)C2CCN(S(=O)(=O)c3ccccc3F)CC2)CC1,-15.1
8,CC(CNC(=O)COc1ccccc1)OC(=O)Nc1ccc(Cl)c(Cl)c1 (centres unmarked),-14.9
9,CC1CC(C)CN(C(=O)Cn2ncc3c([nH]c4ccccc43)c2=O)C1 (centres unmarked),1.33
10,Cc1oc2c(cc(NS(=O)(=O)c3ccc4c5c(cccc35)C(=O)N4)c3ccccc32)c1C(=O)OC(C)C,5.33
11,CC1S/C(=N/N=C/c2cccs2)NC1=O (centres unmarked),7.44
12,O=C1C=C(c2cc3ccccc3s2)C[C@@H](c2ccc3c(c2)OCO3)C1,12.6
13,O=S(=O)(c1ccc(F)cc1)N(CCO)CC(O)Cn1c2ccccc2c2ccccc21 (centres unmarked),-3.36
14,COCc1cc(C)nc(OCC(=O)N/N=C/c2cccc(OC)c2)c1C#N,-2.24
15,CNC(=O)COC(=O)c1cc(-c2ccc(OC)cc2)nc2ccccc12,-9.55
16,COc1ccc2[nH]cc(CCN(C)C)c2c1,18.9
17,O=C(NC1CC1)C1=C[C@H](c2csc3ccccc23)C[C@H](OCCCCO)O1,-24.1
18,Cc1cc(C)n2nc(CC(=O)NNC(=O)c3ccccc3Cl)nc2n1,13.2
19,Cc1cccc(NC(=O)c2cc3ccccc3nc2C)c1,9.2

row,Structure (SMILES),"hERG current change (%, negative = inhibition) at 10uM [%]"
1,c1ccc(SCc2nc(-c3ccncc3)n[nH]2)nc1,12.6
2,O=C(Nc1cccc2ccccc12)c1cnsn1,5.58
3,O=C(Nc1ccc2c(c1)CCC2)c1c(F)cccc1Cl,36.1
4,Cc1ccc(-c2csc(N(Cc3ccccc3)C(=O)COc3ccccc3)n2)cc1,7.08
5,CCOC(=O)c1nn(-c2ccccc2)c2nnc(Cc3ccccc3)c(=O)n12,1.04
6,O=C1C(c2ccc(F)cc2)N(Cc2ccc3c(c2)OCO3)C(=O)CN1C1CCCC1 (centres unmarked),-30.7
7,Cc1ccc(/C=C(\CCC(=O)O)c2nc3ccccc3s2)cc1[N+](=O)[O-],16
8,Cc1cc(C)cc(NC(=O)C(Sc2ncnc3ccccc23)c2ccccc2)c1 (centres unmarked),16.1
9,CCN1CCN(c2ccc(S(=O)(=O)N3CCCCC3)cc2NC(=O)COc2ccccc2)CC1,-66.6
10,O=C(NCC1(c2ccccc2)CCCC1)C(=O)N1CCOCC1,11
11,O=C(NC1CCCC1)C(c1ccccc1F)N(C(=O)c1csnn1)C1CC1 (centres unmarked),1.26
12,Cc1ccc(OC(=O)c2cc3ccccc3o2)cc1,22.2
13,S=C(NCC1(c2ccccc2)CCCC1)Nc1ccccc1,23.8
14,CC(C)CC(=O)NC1(C(F)(F)F)NC(=O)N(c2ccccc2)C1=O (centres unmarked),26
15,COc1ccc(C(=O)NCc2ccc3c(c2)OCO3)cc1S(=O)(=O)NCc1ccc(Cl)cc1,-38.6
16,COC(OC)c1ccnc(-c2ccc(OC(=O)c3ccccc3)cc2)n1,31
17,C/C(=N\Nc1cc(N2CCOCC2)nc(C)n1)c1ccc(F)cc1,-12
18,CC1C(=O)OC(c2ccc(Cl)cc2)C(C)(C)C1=O (centres unmarked),15.3
19,CN1CCCN(C(=O)c2ccc(Br)s2)CC1,-14.5

row,Structure (SMILES),"hERG current change (%, negative = inhibition) at 10uM [%]"
1,COC(=O)c1sccc1NC(=O)COc1ccc(C)cc1,33.3
2,Nc1ccc(S(=O)(=O)c2cccc(N)c2)cc1,-1.51
3,O=Cc1sc(N2CCOCC2)nc1-c1ccccc1,3.83
4,O=c1[nH]c(C2CCN(S(=O)(=O)c3ccc4c(c3)OCCO4)CC2)nc2c1nnn2Cc1cccc(F)c1,3.14
5,Cc1ccc2c(c1)NCC(C(=O)NCc1ccccc1)O2 (centres unmarked),1.28
6,O=C(c1ccc(CS(=O)(=O)c2c(Cl)cccc2Cl)o1)N1CCCC1,-11.2
7,CC(C)C[C@H](NC(=O)N1c2ccccc2NC(=O)[C@@H]1C(C)C)C(=O)N[C@@H](Cc1ccccc1)C(=O)O,-2.11
8,O=C(Cc1ccccc1)N1CCN(Cc2ccccc2Cl)CC1.O=C(O)C(=O)O,7.24
9,O=Nc1onc(-c2ccc([N+](=O)[O-])cc2)c1NO,17
10,COc1ccc(Cc2nc(=S)[nH][nH]2)cc1Br,22.7
11,O=C(Nc1ncc(Cc2ccccc2)s1)C1=NCCN1,6.81
12,CN(CC(=O)Nc1nc2ccccc2s1)S(=O)(=O)c1ccccc1,-6.25
13,CSc1nc(-c2ccccc2)nc(N2CCOCC2)c1C(C)=O,10.9
14,Cc1ccccc1SCC(=O)NNC(=O)c1ccccc1O,-0.473
15,O=C1C(Cl)=C(N2CCOCC2)C(=O)N1CCc1ccccc1,-36.6
16,CN(C)S(=O)(=O)c1ccc(C(=O)Nc2nnc(-c3ccc4c(c3)CCCC4)o2)cc1,5.76
17,N#Cc1c(NC(=O)c2cc(-n3cnnc3)ccc2Cl)sc2c1CCCC2,15.4
18,O=C(O)C1Cc2c([nH]c3ccccc23)C(c2ccc3c(c2)OCO3)N1 (centres unmarked),4.15
